Source: PubChem BioAssay (NCATS)
Inconclusive means that the source gave no clear call. Such entries were picked first, then a sample of the others. Potencies of inconclusive entries are left out as doubtful fits. Activity calls are given as the source filed them. The call rests on the fitted dose curve; in most records, active means well fitted inhibition curve with a large enough effect; inconclusive means small, poorly fitted or top-dose-only effect; inactive means no such curve, though single readings can be large or run the other way.

These compounds were tested against Rap guanine nucleotide exchange factor 3 (Homo sapiens) (UniProt O95398) (assay: Confirmatory qHTS for antagonist of cAMP-regulated guanine nucleotide exchange factor 3 (EPAC1) (AID 1645880; further: nearly all actives have a fitted effect of over 55% in size;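 on activity, negative = inhibition: plate controls were DMSO only for no effect and full effect of the ATA control for full effect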)). Conditions: EPAC1 Rap1B-BODIPY-GDP exchange, fluorescence; activity, negative = inhibition: at 115 µM (top of the series).
Method in brief: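 Nucleotide exchange uses 100 nM EPAC1, 250 nM RAP1B-BODIPY-GDP and 50 uM GDP, with compounds in a concentration-titration series. After 5 min at room temperature, fluorescence (480 nm ex/540 nm em) is read every 5 min for 30 min. Data are normalized to control ATA and DMSO.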
Potency means the concentration at half of the fitted maximal effect; tags describe the fitted curve by direction and shape.

UniProt O95398, sequence (O95398 whole entry, looked up): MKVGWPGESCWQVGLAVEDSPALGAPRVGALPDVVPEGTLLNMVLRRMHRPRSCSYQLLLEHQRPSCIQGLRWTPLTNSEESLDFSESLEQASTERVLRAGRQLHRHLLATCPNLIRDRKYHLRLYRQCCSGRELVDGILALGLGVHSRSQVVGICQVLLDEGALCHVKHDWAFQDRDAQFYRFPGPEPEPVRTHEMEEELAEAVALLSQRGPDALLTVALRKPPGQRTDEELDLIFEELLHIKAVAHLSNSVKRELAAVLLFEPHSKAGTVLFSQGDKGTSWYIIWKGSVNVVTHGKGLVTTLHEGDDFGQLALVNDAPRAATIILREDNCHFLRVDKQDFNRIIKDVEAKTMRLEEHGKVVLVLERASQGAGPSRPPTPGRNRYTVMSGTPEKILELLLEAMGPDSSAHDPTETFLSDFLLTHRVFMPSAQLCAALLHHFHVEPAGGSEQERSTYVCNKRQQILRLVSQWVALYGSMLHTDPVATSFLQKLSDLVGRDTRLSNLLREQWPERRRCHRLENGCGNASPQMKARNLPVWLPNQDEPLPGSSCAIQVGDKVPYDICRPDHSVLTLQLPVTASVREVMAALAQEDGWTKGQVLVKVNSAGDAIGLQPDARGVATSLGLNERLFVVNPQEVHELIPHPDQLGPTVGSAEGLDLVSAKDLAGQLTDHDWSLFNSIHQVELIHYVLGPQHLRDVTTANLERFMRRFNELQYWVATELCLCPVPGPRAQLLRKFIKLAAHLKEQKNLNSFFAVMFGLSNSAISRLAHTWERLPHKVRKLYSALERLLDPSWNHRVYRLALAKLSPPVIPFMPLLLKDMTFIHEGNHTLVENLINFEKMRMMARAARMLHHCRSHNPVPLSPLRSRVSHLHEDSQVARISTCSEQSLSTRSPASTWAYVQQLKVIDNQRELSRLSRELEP

Structure (SMILES)	Potency	activity, negative = inhibition
Cc1ccccc1CN(C)CC(=O)Nc1c(C)cccc1C(C)C	inconclusive [inhibitor, full curve, poor fit]	–
CCOc1cc2c3c(c1)C(C)=CC(C)(C)N3C(=O)C2=O	–	inactive: -25.4%
CN(C(=O)CSc1nc(-c2ccc(C(C)(C)C)cc2)c(C#N)c(=O)[nH]1)C1CCCCC1	active: 42.6 µM	–
Cc1ccc(SCC(=O)OCC(=O)N(C)CC(=O)Nc2ccc(F)cc2)cc1C	inconclusive [inhibitor, partial curve, poor fit]	–
CC1CC2(NC(=O)NC2=O)C(C)CN1C (stereo not drawn)	inconclusive [inhibitor, partial curve, poor fit]	–
CN(C)c1ccc(C(O)c2cc3ccccc3s2)cc1 (stereo not drawn)	–	inactive: -18.8%
CCCCn1c(CNC(=O)C23CC4CC(CC(C4)C2)C3)nnc1SCC(=O)Nc1nnc(C)s1	inconclusive [inhibitor, full curve, poor fit]	–
O=C(O)CN1C(=O)/C(=C\c2cccc(OCc3ccc(F)cc3)c2)SC1=S	inconclusive [inhibitor, partial curve, poor fit]	–
